Data from publication PMC11791976, “CDC20‐Mediated Selective Autophagy Degradation of PBRM1 Affects Immunotherapy for Renal Cell Carcinoma” (Advanced Science, 2024).
No constants are given. Whether binding was seen depends on the method and setting. For part of these data: Binding seen in cells or lysates may run through a third protein. Some binding calls cover weakened binding; strength is not graded here. Values belong to the substance of their own block, whether it stands above or below them.

Chains of the proteins cited; added tags and fusions are not shown. Residues count along the entry.
GST-p62 region 104-221 (Q13501, residues 104-221): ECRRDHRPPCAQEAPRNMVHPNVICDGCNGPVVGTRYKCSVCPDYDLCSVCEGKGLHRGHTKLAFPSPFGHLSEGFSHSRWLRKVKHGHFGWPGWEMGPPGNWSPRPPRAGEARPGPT
UniProt Q12834: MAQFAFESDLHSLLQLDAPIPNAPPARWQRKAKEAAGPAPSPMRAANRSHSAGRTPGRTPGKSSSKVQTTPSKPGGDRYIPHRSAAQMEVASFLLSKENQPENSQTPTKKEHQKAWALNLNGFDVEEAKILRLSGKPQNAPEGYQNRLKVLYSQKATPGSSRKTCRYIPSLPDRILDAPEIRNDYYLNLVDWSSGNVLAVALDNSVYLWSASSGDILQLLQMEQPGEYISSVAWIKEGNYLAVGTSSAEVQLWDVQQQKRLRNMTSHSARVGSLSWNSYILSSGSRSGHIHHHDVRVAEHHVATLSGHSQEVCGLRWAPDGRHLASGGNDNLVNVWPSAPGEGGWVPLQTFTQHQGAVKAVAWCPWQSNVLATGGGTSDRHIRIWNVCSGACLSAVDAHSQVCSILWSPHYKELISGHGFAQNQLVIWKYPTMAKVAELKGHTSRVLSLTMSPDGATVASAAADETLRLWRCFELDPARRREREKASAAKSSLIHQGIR
UniProt Q9UM11: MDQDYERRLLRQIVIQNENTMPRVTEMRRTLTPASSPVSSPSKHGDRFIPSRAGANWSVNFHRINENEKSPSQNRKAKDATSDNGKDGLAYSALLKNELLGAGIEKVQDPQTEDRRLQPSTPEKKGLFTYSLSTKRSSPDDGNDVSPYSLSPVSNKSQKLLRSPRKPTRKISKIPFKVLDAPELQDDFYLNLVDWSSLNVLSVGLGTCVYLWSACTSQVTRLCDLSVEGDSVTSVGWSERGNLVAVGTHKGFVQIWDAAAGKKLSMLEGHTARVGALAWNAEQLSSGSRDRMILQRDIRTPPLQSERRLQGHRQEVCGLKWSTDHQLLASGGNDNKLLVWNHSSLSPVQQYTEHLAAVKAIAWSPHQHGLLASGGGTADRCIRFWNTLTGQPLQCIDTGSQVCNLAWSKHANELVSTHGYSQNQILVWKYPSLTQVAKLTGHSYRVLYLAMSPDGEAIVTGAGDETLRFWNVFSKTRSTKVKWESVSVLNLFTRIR

Tests used:
[1] = molecular target: PBRM1 (Polybromo 1), endogenous (human (endogenous in 786-O and 769-P)) (UniProt Q86U86); experiment: co-IP; endogenous proteins; anti-CDC20 or anti-PBRM1 immunoprecipitates of 786-O and 769-P lysates; IP buffer 50 mM Tris-HCl pH 7.4, 120 mM NaCl, 5 mM EDTA, 0.5% NP-40
[2] = molecular target: GST-PBRM1 (UniProt Q86U86); experiment: pull-down; purified GST-PBRM1 (Glutathione Sepharose 4B) and purified HA-CDC20 or HA-CDH1 incubated together at 4 °C for no more than 3 h, washed with IP buffer, western blot; both purified
[3] = molecular target: Flag-tagged PBRM1 (Polybromo 1), pcDNA3.1-PBRM1-3xFlag (UniProt Q86U86); experiment: co-IP; 293T cells transfected with tagged proteins; Flag or HA antibody on agarose, 4-6 h; IP buffer 50 mM Tris-HCl pH 7.4, 120 mM NaCl, 5 mM EDTA, 0.5% NP-40; in one panel cells treated with PB1-p62 (5 µM) and chloroquine (50 µM) for 24 h
[4] = molecular target: V5-PBRM1 wild type (pcDNA6.2/N-EmGFP-PBRM1-V5) (UniProt Q86U86); experiment: as above
[5] = molecular target: GST-p62 (pCMV-GST-p62) (UniProt Q13501); experiment: pull-down; GST pull-down from 293T cells co-transfected with GST-p62 (or its truncated constructs) and V5-PBRM1; panels with serum starvation for 24 h, with HA-CDC20 co-transfected, or in CDC20 knock-down cells
[6] = molecular target: GST-p62 region 104-221 (UniProt Q13501); experiment: as above
[7] = molecular target: Flag-p62 (pcDNA3-Flag-p62) (UniProt Q13501); experiment: co-IP; 293T cells transfected with tagged proteins; Flag or HA antibody on agarose, 4-6 h; IP buffer 50 mM Tris-HCl pH 7.4, 120 mM NaCl, 5 mM EDTA, 0.5% NP-40; in one panel cells treated with PB1-p62 (5 µM) and chloroquine (50 µM) for 24 h
[8] = molecular target: HA-p62 (pcDNA3-HA-p62) (UniProt Q13501); experiment: as above

binding [1]: binds
Substance: CDC20 (cell division cycle 20 homologue), endogenous (from UniProt Q12834 1-499)

binding [2]: binds | binding [3]: binds | binding [4]: binds
Substance: HA-CDC20 (pcDNA3-HA-CDC20) (from UniProt Q12834 1-499)

binding [2]: no binding
Substance: HA-CDH1 (pcDNA3-HA-CDH1) (from UniProt Q9UM11 1-496)

binding [5]: binds | binding [6]: binds | binding [7]: binds | binding [8]: binds
Substance: V5-PBRM1 wild type (pcDNA6.2/N-EmGFP-PBRM1-V5) (from UniProt Q86U86 1-1689)
